Assay results from the supplement of paper PMC7826260.
The list shows a part of the results. One pool of 16,384 single-stranded DNAs met each Rep nickase domain in vitro at 3 µM enzyme and 37 °C for 1 h; the strands have 90 letters, of which the middle is given. Uncut reads are compared with the no-enzyme pool on a log2 scale; strong cutting gives strongly negative numbers. There is no active / inactive call. The scaling is to total reads; uncut strands gain when others are lost, and binding without cutting may add a little.

tested on: T1, Rep nickase domain of Muscovy duck circovirus; assay: uncleaved DNA left, log2 of reads against the no-enzyme library (log2 ratio); higher = less cleavage (more negative = more Rep cleavage of the k-mer); sequences stand for … in CTCGTCCG…ACCGGAGA
T1 sequence (residues 1-111 of Rep, tag left off): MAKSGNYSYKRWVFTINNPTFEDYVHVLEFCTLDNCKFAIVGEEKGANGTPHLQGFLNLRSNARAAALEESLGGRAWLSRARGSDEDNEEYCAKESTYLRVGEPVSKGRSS
Protocol: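 A pool of 90-nt single-stranded DNAs with seven random bases just before the constant AC of the nick site (name = the seven bases) was cut by 3 µM recombinant His6-SUMO-tagged Rep nickase domain (300 nM DNA, 50 mM HEPES pH 8.0, 50 mM NaCl, 1 mM MnCl2, 1 h, 37 °C, three replicates). Uncut DNA was amplified and sequenced.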

Sequence | uncleaved DNA left (log2)
TCAATCA | 0.166
GAAGCAG | 0.0902
ATCCTCT | 0.0135
AATCTGA | 0.0255
TGTGTGC | 0.0501
GACTGCT | -0.998
TGGTTGG | 0.0561
AAGATTT | 0.0897
AGCATTA | 0.0643
AATCGTG | 0.0421
GGAGTGA | 0.124
TGTTACG | -0.147
CCGCGAT | 0.075
AGAATAT | 0.0255
TGCCTAC | 0.0433
GTTTACA | 0.137
GCATAGA | 0.0398
GCTTTTA | 0.0883
TTCGAAG | -0.0657
TTGTACA | 0.0123

Sequence | uncleaved DNA left (log2)
GAGGGGG | 0.116
CGGGTAG | -0.132
GTCAACG | -0.0286
GATGTAG | -0.101
GCGTGCC | 0.0127
AACTGTA | -0.28
GGAAGAA | -0.0293
ACTTGGC | 0.0142
TGGCACG | 0.0662
CGGGTAC | -0.146
ACCTTTA | -0.132
CGCCATA | -0.176
AATTCGT | -1.5
CGATTAT | -0.387
AGTGTTT | 0.134
AGCCATA | -0.0203
CCACAAG | -0.0381
GCATGAA | 0.071
CGTATGG | 0.049
GACAACC | -0.0412
